Where “and” joins values, the source holds several entries; their conditions need not be identical. Identical values can stand only once. Inconclusive means that the source gave no clear call. Such entries were picked first, then a sample of the others. Where the call is inconclusive, the potency comes from a doubtful curve fit. A structure can be active in one record and inactive in another. Calls of active or inactive are those of the source. Calls follow the shape of the dose curve; as a rule, active = well fitted curve in the direction sought with a large enough effect in the repeat runs; inconclusive = weak or mixed curves; inactive = no such curve, though single readings can be large; an effect the other way counts as inactive or inconclusive.
experiment: qHTS assay to identify small molecule agonists of the estrogen receptor beta (ER-beta) signaling pathway - cell viability counter screen (AID 1259380); conditions: ER-beta-bla HEK293T viability, CellTiter-Glo luminescence, 16 h; series mostly up to 92.4 µM; also: nearly all actives have a fitted effect of over 30% in size
In short: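 In this qHTS counter screen, HEK293T cells carrying an ER-beta/UAS beta-lactamase reporter, grown in 2% charcoal-stripped FBS, received compound for 16 hr; ATP-based CellTiter-Glo luminescence was then read after 30 min at room temperature.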
Potency is read from the fitted curve at half-maximal effect; tags tell the direction and shape of the fitted curve.

Structure (SMILES)	Potency
C=C1CC[C@H](O)CC1=C/C=C1\CCC[C@]2(C)[C@@H]([C@H](C)/C=C/[C@H](C)C(C)C)CC[C@@H]12	active: 24.1 µM and active: 30.6 µM
CC(C)C(=O)Nc1ccc([N+](=O)[O-])c(C(F)(F)F)c1	inactive and active: 24.3 µM and inconclusive: 23.7 µM [cytotoxic, partial curve]
Cc1ccc(S(=O)(=O)C(I)I)cc1	active: 21.7 µM
O=S(=O)(c1ccc(OCc2ccccc2)cc1)c1ccccc1O	inconclusive: 30.6 µM [cytotoxic, partial curve]
Cc1cc2nc3ccc(=[N+](C)C)cc-3sc2cc1N	active: 4.22 µM
CCCCCCCCCCCCCCCO	inconclusive: 54.9 µM [cytotoxic, partial curve]
CCN(CC)c1ccc2c(-c3ccccc3C(=O)O)c3ccc(=[N+](CC)CC)cc-3oc2c1	active: 8.63 µM
COc1ccc(-c2cc(=S)ss2)cc1	inactive
CCOC(=O)c1ccc(C2CCC(NC[C@H](O)COc3ccc(O)c(NS(C)(=O)=O)c3)CC2)cc1 (some centres undefined)	active: 50.2 µM
Cc1nccn1-c1ccc(Sc2cccc(C3(C(N)=O)CCOCC3)c2)cc1	inconclusive: 24.3 µM [cytotoxic, partial curve]
CCC(=O)c1ccc2c(c1)N(CCCN(C)C)c1ccccc1S2	active: 29.8 µM
CN(C)Cc1cc(C(C)(C)C)c(O)c(C(C)(C)C)c1	inconclusive: 27.3 µM [cytotoxic, partial curve]
COc1ccc(CCO)cc1	inconclusive: 30.6 µM [rising, single point]
O=C1C=CC(=O)N1c1cccc(N2C(=O)C=CC2=O)c1	active: 61.1 µM
CN1CCCCC1CCN1c2ccccc2Sc2ccc(S(C)=O)cc21 (centres undefined)	inconclusive: 33.5 µM [cytotoxic, single point]
O=C1[C@H]2CCCC[C@H]2C(=O)N1CCCCN1CCN(c2nsc3ccccc23)CC1	inconclusive: 2.66 µM [cytotoxic, full curve]
COc1ccc(-c2coc3cc(O)cc(O)c3c2=O)cc1	inconclusive: 27.5 µM [cytotoxic, single point]
CCC(CN)=C(c1ccccc1)c1ccccc1	active: 21.1 µM
Nc1ccc2c(O)cc(S(=O)(=O)O)cc2c1	active: 15.4 µM and inconclusive: 2.43 µM [cytotoxic, full curve]
c1csc(SSc2cccs2)c1	active: 13.7 µM
Oc1c(Cl)cc(Cl)c(Cl)c1Cl	inconclusive: 13.4 µM [cytotoxic, partial curve] and inconclusive: 7.7 µM [cytotoxic, partial curve, poor fit]
Fc1ccc(C(c2ccc(F)cc2)N2CCN(C/C=C/c3ccccc3)CC2)cc1	inconclusive: 33.5 µM [cytotoxic, single point]
CCc1nn(CCCN2CCN(c3cccc(Cl)c3)CC2)c(=O)n1CCOc1ccccc1	inconclusive: 18.8 µM [cytotoxic, partial curve]
O=C(/C=C/c1ccc([N+](=O)[O-])cc1)c1ccccc1	inconclusive: 27.4 µM [cytotoxic, single point]
O=C(Oc1ccccc1)c1ccccc1C(=O)Oc1ccccc1	inconclusive: 68.6 µM [cytotoxic, single point]
Nc1c(S(=O)(=O)O)cc(Br)c2c1C(=O)c1ccccc1C2=O	inconclusive: 68.6 µM [cytotoxic, single point]

experiment: qHTS assay to identify small molecule antagonists of the estrogen receptor beta (ER-beta) signaling pathway - cell viability counter screen (AID 1259382); conditions: ER-beta-UAS-bla HEK293T viability, CellTiter-Glo luminescence, 16 h; series mostly up to 92.4 µM; also: nearly all actives have a fitted effect of over 55% in size
In short: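 HEK293T ER-beta-UAS-bla, 2% charcoal-stripped FBS; compounds + 1nM E2 16 hr 37C; CellTiter-Glo luminescence, 30 min RT.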

Structure (SMILES)	Potency
C=C1CC[C@H](O)CC1=C/C=C1\CCC[C@]2(C)[C@@H]([C@H](C)/C=C/[C@H](C)C(C)C)CC[C@@H]12	inconclusive: 30.6 µM [cytotoxic, full curve]
CC(C)C(=O)Nc1ccc([N+](=O)[O-])c(C(F)(F)F)c1	inconclusive: 61.1 µM [cytotoxic, partial curve]
Cc1ccc(S(=O)(=O)C(I)I)cc1	active: 30.6 µM
O=S(=O)(c1ccc(OCc2ccccc2)cc1)c1ccccc1O	inconclusive: 30.6 µM [cytotoxic, partial curve, poor fit]
Cc1cc2nc3ccc(=[N+](C)C)cc-3sc2cc1N	inconclusive: 7.5 µM [cytotoxic, partial curve]
CCCCCCCCCCCCCCCO	inconclusive: 54.9 µM [cytotoxic, partial curve]
CCN(CC)c1ccc2c(-c3ccccc3C(=O)O)c3ccc(=[N+](CC)CC)cc-3oc2c1	inconclusive: 7.7 µM [cytotoxic, full curve]
COc1ccc(-c2cc(=S)ss2)cc1	inactive
CCOC(=O)c1ccc(C2CCC(NC[C@H](O)COc3ccc(O)c(NS(C)(=O)=O)c3)CC2)cc1 (some centres undefined)	inconclusive: 31.7 µM [cytotoxic, partial curve]
CCC(=O)c1ccc2c(c1)N(CCCN(C)C)c1ccccc1S2	inconclusive: 26.6 µM [cytotoxic, partial curve]
CN(C)Cc1cc(C(C)(C)C)c(O)c(C(C)(C)C)c1	inconclusive: 27.3 µM [cytotoxic, single point]
O=C1C=CC(=O)N1c1cccc(N2C(=O)C=CC2=O)c1	active: 68.6 µM
CN1CCCCC1CCN1c2ccccc2Sc2ccc(S(C)=O)cc21 (centres undefined)	inconclusive: 29.8 µM [cytotoxic, partial curve]
CCC(CN)=C(c1ccccc1)c1ccccc1	inconclusive: 18.8 µM [cytotoxic, partial curve]
c1csc(SSc2cccs2)c1	inconclusive: 9.69 µM [cytotoxic, full curve]
Oc1c(Cl)cc(Cl)c(Cl)c1Cl	inconclusive: 9.48 µM [cytotoxic, partial curve] and inconclusive: 8.63 µM [cytotoxic, partial curve]
Fc1ccc(C(c2ccc(F)cc2)N2CCN(C/C=C/c3ccccc3)CC2)cc1	inconclusive: 33.5 µM [cytotoxic]
CCc1nn(CCCN2CCN(c3cccc(Cl)c3)CC2)c(=O)n1CCOc1ccccc1	inconclusive: 26.6 µM [cytotoxic, partial curve]

— PubChem BioAssay (Tox21)
